Experimental data reported in paper PMC6919601, “Identification of Plasmodium dipeptidyl aminopeptidase allosteric inhibitors by high throughput screening” (PLoS ONE, 2019).
The campaign covered roughly 110,000 compounds. About 230 (0.21%) showed an effect of 50% or more. The list shows a part of the results.

Target: DPAP1 (Plasmodium falciparum, UniProt Q8IIJ9)
Test: primary screen, percent inhibition; read by cleavage of a fluorogenic dipeptide substrate; higher = more effect of the substance
Parameters: species or system P. falciparum D10 trophozoite lysates; single well
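Further: 30 min substrate incubation versus DMSO and 10 µM JCP410 controls.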

Chain of DPAP1 (Q8IIJ9 whole entry, looked up): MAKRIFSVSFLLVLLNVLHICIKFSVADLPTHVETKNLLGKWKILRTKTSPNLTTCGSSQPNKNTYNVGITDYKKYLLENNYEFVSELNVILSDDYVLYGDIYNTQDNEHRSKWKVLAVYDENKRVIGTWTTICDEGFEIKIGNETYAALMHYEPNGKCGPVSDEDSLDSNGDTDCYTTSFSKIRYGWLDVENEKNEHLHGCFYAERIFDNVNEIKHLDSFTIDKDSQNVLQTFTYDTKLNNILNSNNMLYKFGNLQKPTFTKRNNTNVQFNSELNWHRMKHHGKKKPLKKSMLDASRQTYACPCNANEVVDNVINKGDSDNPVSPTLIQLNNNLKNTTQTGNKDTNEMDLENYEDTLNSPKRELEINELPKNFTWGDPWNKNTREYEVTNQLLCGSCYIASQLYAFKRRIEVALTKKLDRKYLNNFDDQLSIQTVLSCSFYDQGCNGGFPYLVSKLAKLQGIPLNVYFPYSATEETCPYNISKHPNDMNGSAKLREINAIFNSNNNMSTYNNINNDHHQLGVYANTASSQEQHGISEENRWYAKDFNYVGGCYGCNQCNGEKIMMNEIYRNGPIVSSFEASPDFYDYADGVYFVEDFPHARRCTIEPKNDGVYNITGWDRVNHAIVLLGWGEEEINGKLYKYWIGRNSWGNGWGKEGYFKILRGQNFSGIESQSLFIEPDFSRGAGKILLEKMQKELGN

Compound | % Inhibition @ 10 uM [%]
COc1ccc(-c2[nH]nc(C)c2-c2cnn(-c3ccccc3)c2)c(O)c1 | 4.35
COc1ccc(C(=O)Nc2ccc(S(=O)(=O)Nc3ncccn3)cc2)c(OC)c1 | -3.09
Cn1ncc(C#N)c1N | 0.708
Cc1ccc(CNC(=O)C(NS(=O)(=O)c2ccc(Br)s2)c2ccccc2)cc1 (stereo not shown) | -0.668
COc1ccc(/C(O)=C/C=N/c2ccc(Br)cc2Cl)cc1OC | -6.51
COc1cccc(OC)c1C(=O)NCC1CCCO1 (stereo not shown) | 0.634
CCOc1ccc(/C=C(\C#N)c2nc(-c3ccc(OCC)cc3)cs2)cc1 | 2.13
CC1=C(C(=O)NCCN2CCN(C)CC2)C2(CCC(C)CC2)OC1=O (stereo not shown) | 1.55
COc1cc(/C=N\n2cnnc2)ccc1OCc1ccccc1 | 7.62
Cc1ccc(OCC(O)CN2CCN(c3ccccc3)CC2)cc1 (stereo not shown) | 3.72
COCCNC(=O)CN1C(=O)CSc2nc(C)cc(C)c21 | 5.73
Cc1[nH]c2ccccc2c1C(c1ccc(N(C)C)cc1)c1c(C)[nH]c2ccccc12 | 0.565
CC1SC(NC(=O)COc2ccccc2)=NC1=O (stereo not shown) | 0.222
CCc1ccccc1S(=O)(=O)Cc1ccc(C(=O)N2CCN(c3ccccn3)CC2)o1 | 0.458
CCOc1cc2c(cc1OCC)C1C(C(=O)NC3CCCCC3)c3ccccc3C(=O)N1CC2 (stereo not shown) | -6.58
CC/N=C(/Nc1cc(-c2ccccc2)[nH]n1)SC | -0.551
N=C(NOC(=O)/C=C/c1ccccc1)c1ccncc1 | -1.55
N=c1n(CCOc2ccccc2)c2ccccc2n1CCN1CCOCC1 | -6.25
Cc1ccc2nc(NC(=O)Cc3csc(C)n3)sc2c1 | -2.71
CC(C)(C)C1CCC(OC(=O)CCC(=O)Nc2ccccc2)CC1 (stereo not shown) | 3.16
COc1cc(Cn2c(=O)oc3ccc(C)cc32)ccc1OC(C)C | 4.09
CCCNC(=O)CCn1nc(C)c2c(C)n(-c3ccccc3)nc2c1=O | -6.75
CC1=NN2CC(c3ccccc3)=NN=C2NC1=O | -3.23
O=C(NCc1noc2ccccc12)N1CCN(C2CCCCC2)CC1 | -4.95
CN(Cc1ccco1)C(=O)CCNS(=O)(=O)c1ccc2nc(O)ccc2c1 | -8.7
Cn1ncc(Cl)c1C(=O)NCc1cc2cc(Cl)ccc2[nH]1 | -4.28

Compound | % Inhibition @ 10 uM [%]
CCCc1nn(-c2ccc(F)cc2)c(O)c1/C=N/CCN1CCOCC1 | -0.99
Cc1ccc(C2C(C#N)=C(N)SC(N)=C2C#N)c(C)c1 | 27.4
CSc1nc2c(c(=O)[nH]c(=O)n2C)n1Cc1ccc(C)cc1 | 4.09
CC(=O)NC1=NC(=O)/C(=C/c2cccc(F)c2)S1 | -5.92
O=C(CN(c1ccccc1Cl)S(=O)(=O)c1ccccc1)NC1CC2CCC1C2 (stereo not shown) | -1.71
CCOC(=O)N1CCN(C/C(Cl)=C/c2ccccc2)CC1 | -2.34
Oc1nnnc2c1sc1nc(-c3ccccc3)cc(-c3ccccc3)c12 | -0.808
O=C(Cn1c(-c2cccs2)cc2ccccc21)NCc1ccco1 | -1.6
COc1ccc2c(c1)c(C(=O)N1CCN(C)CC1)c(C)n2C | 5.65
CC(=O)N1c2ccccc2-[n+]2ccsc2CC1C (stereo not shown) | 3.91
CCn1c(C)c(C)c2cc(C(=O)NCCCc3ccccc3)ccc21 | -5.09
COc1cc(/C=C/c2nc(C#N)c(NCc3ccc(C)cc3)o2)cc(OC)c1OC | 4.13
O=C(Cc1ccccc1)N1CCN(Cc2cccc(Br)c2)CC1 | 0.528
CCC(Oc1ccccc1)C(=O)Nc1ncccc1Cl (stereo not shown) | -3.75
CCOC(=O)NC(=O)c1cn(Cc2ccc(Cl)cc2)c(=O)[nH]c1=O | -3.37
CC(=O)c1cccc(NC(=O)C2CC2c2ccccc2)c1 (stereo not shown) | -0.312
O=C(CCN1CCCCC1)Nc1ccc(C2CCCC2)cc1 | 4.11
O=C(O)c1ccccc1C(=O)Nc1cc(Cl)ccc1Cl | 4.64
CCCCNC(=O)CN(C1CCCCC1)S(C)(=O)=O | 3.21
COC(=O)C1=C(C)N(C)C(C)=C(C(=O)OC)C1c1cccc(Cl)c1Cl | 6.12
CCOC(=O)c1c(NC(=O)CSc2cc(C)c3ccc(OC)cc3n2)sc(C(=O)OC)c1C | 1.58
Cc1oc2cc3oc(=O)ccc3cc2c1C | -1.15
O=C(COc1ccc2ccccc2c1Br)N1CCc2ccccc21 | -3.37
COCCN1C(=O)c2ccccc2C(C(=O)NCCCN2CCCC2)C1c1c[nH]c2ccccc12 (stereo not shown) | 4.05
CCCc1cc(O)nc(SCC(=O)Nc2ccccc2C(F)(F)F)n1 | -7.06
COC(=O)c1c(Sc2ccccc2)c2ccccc2n1C | -0.0309

Compound | % Inhibition @ 10 uM [%]
COC(=O)c1ccc(/C=C2\N=C(c3ccc(F)cc3)OC2=O)cc1 | 2.92
CC1CC(C)CN(C(=O)c2cc3c(s2)-c2ccccc2OC3)C1 (stereo not shown) | -4.85
COc1ccc2c(CNCc3ccc4c(c3)OCO4)c(C(=O)O)[nH]c2c1 | -4.16
COc1ccc(S(=O)(=O)NCc2ccco2)cc1C | 4.25
O=C(Nc1ccccn1)c1ccc(C(F)(F)F)cc1 | -2.98
CC(=O)c1ccc(NC(=O)COc2cc(C)ccc2C)cc1 | 3.35
COc1ccc(CCNC(=O)Cc2c(C)c3cc4c(C)coc4cc3oc2=O)cc1 | -0.808
Cn1c(=O)c2c(nc(NCCCN3CCOCC3)n2C)n(C)c1=O | 6.97
CCOc1ccccc1C(=O)Nc1ccc(F)c(Cl)c1 | -1.24
O=C(NCc1ccc(Cl)cc1)c1cc(-c2ccccn2)nc2ccccc12 | 2.9
CC(C)=CCC[C@H](C)CCN1CCCC(O)C1 (stereo partly shown) | 3.15
CCOC(=O)/C(C#N)=C/c1c(Oc2cccc(C)c2C)nc2c(C)cccn2c1=O | -7.04
O=C(NCCCCNC(=O)C1CCCC1)C1CCCC1 | 4.11
COc1ccc(CCNC(=O)c2noc3c2COc2ccc(C)cc2-3)cc1OC | -4.07
CCc1cccc2c(C#N)cn(CC(N)=O)c12 | -0.105
O=C(NCc1ccco1)/C(=C/c1ccco1)NC(=O)c1ccccc1 | -0.988
CC1CCCCC1N(C)C1CCN(CCCNC(=O)/C=C/c2cccc(C(F)(F)F)c2)CC1 (stereo not shown) | -2.85
Cc1cc(C)n(-c2ccc(C(=O)Nc3ccccn3)cc2)n1 | 1.87
CC1CCCCC1NC(=O)c1cnn2c(C(F)(F)F)cc(-c3cccs3)nc12 (stereo not shown) | 4.36
Cc1ccc(C)n1-c1nnc(N2CCC(C(=O)N3CCC(N4CCCCC4)CC3)CC2)s1 | 4.22
CCC(CCC(=O)Nc1ccn(-c2ccccc2)n1)C(=O)O (stereo not shown) | -1.52
COc1cccc(N(CC(=O)Nc2ccccc2C(C)C)S(C)(=O)=O)c1 | -1.2
CCc1ccc(S(=O)(=O)/N=C2\C=C(NS(=O)(=O)c3ccccc3)C(=O)c3ccccc32)cc1 | -1.52
Cc1sc2ncnc(N3CCN(Cc4ccccc4)CC3)c2c1C | -7.18
c1nc(NC2CCCCC2)c2c3c(sc2n1)CCCC3 | -2.51
CC1=C(C(=O)Nc2cccc(C)n2)C(c2ccc(C)cc2)C2=C(O)CC(C)(C)CC2=N1 (stereo not shown) | 2.51

Compound | % Inhibition @ 10 uM [%]
O=C(O)c1cccc(NS(=O)(=O)c2cccc(S(=O)(=O)c3ccc(Cl)cc3)c2)c1 | 3.25
Cn1c(=O)n(Cc2ccc(Br)cc2)c(=O)c2c1nc1n2CCN1Cc1ccco1 | 1.42
O=C1CSC2(N1)C1CC3CC(C1)CC2C3 (stereo not shown) | -2.44
COc1ccc(C)cc1NC(=O)NC1CCCCC1 | 0.331
CC(=O)c1c(C(C)=O)c(C)n(-c2cc(C)ccc2C)c1C | 1.03
Cc1ccc(-n2nc3c(=O)n(CCCC(=O)NCCN4CCOCC4)nc(C)c3c2C)cc1 | -8.76
O=C(Nc1cccc(NC(=O)c2cccs2)c1)c1ccccc1 | -1.79
CC1=CC(C)=Nc2ccccc2N1 | -0.274
O=C(CSc1c(O)nc2ccc(Cl)cc2c1-c1ccccc1)N1CCOCC1 | -9.59
O=C1C2C(C(=O)N1CCO)C1C=CC2C12CC2 (stereo not shown) | -0.988
O=C(NCc1ccc2c(c1)OCO2)C1CCN(S(=O)(=O)c2c[nH]cn2)CC1 | 2.9
COc1ccc(NC(=O)c2cccnc2)cc1 | 1.38
O=S(=O)(c1ccc(-c2cs/c(=N\c3ccccc3)n2-c2ccccc2)cc1)N1CCOCC1 | 8.26
Cc1ccc(S(=O)(=O)Nc2ccccc2/N=C/c2ccc(Br)cc2)cc1 | -2.6
COc1cc(C)c(CN2CC(C)CC(C)C2)cc1C (stereo not shown) | -1.5
CC(NC(=O)C(=O)Nc1cccc(C(F)(F)F)c1)c1ccccc1 (stereo not shown) | -1.75
Cc1c(C)n(CC(O)CN2CCCCCC2)c2ccccc12 (stereo not shown) | -1.57
COc1ccc(-c2noc(C(=O)NC(C)c3ccccc3)n2)cc1OC (stereo not shown) | 2.77
O=C(Nc1sc2c(c1C(=O)O)CCCC2)c1cccc(Cl)c1 | 8.21
COc1ccc(CC(=O)Nc2ccc(C)cc2C)cc1 | -3.27
COc1cc(C(=O)Nc2cc(C)cc(C)c2)cc(OC)c1OC | 5.06
CC1SC(c2ccccc2)N(Cc2ccccc2)C1=O (stereo not shown) | -2.42
COC(=O)c1ccc(C2C=C(c3ccc(C(C)C)cc3)Nc3nnnn32)cc1 (stereo not shown) | -1.48
CCOC(=O)c1[nH]c(C)c(C(=O)NCCN(C)C)c1C | 3.32
CCCCc1c(C)nc2ccc(C(=O)O)cc2c1Cl | -1.99
